# Reference: PubChem BioAssay AID938 (National Center for Advancing Translational Sciences (NCATS), 2007)
# The campaign covered roughly 73,000 compounds. About 1,800 (2.5%) were called active. Inconclusive results, whose numbers are uncertain, are shown with a selection of clear calls. The call rests on the fitted dose curve; in most records, active means well fitted activation curve with a large enough effect; inconclusive means small, poorly fitted or top-dose-only effect; inactive means no such curve, though single readings can be large or run the other way. Potencies of inconclusive entries are left out as doubtful fits.
# Experiment: qHTS Assay for Agonists of the Thyroid Stimulating Hormone Receptor: Activators of Intracellular cAMP Concentrations in Parental HEK 293; further: nearly all actives have a fitted effect of over 55% in size; on activation: % of control where 0% means no effect
# Conditions: parental HEK293 CNG cAMP sensor, membrane potential fluorescence; activation: at 57.1 µM (top of the series) unless noted
# Description: NIH Chemical Genomics Center [NCGC]
# NIH Molecular Libraries Screening Centers Network [MLSCN]
# PI Name: Dr. Marvin Gershengorn
# This cell based assay utilized a cyclic nucleotide gated ion channel (CNG) as a biosensor for cAMP induction. HEK 293 cells stably expressing the modified CNG were purchased from BD biosciences (http://www.atto.com/products/actone/features_benefits.shtml) . Stimulation of cAMP production causes the CNG to open and subsequent membrane depolarization to occur. A fluorescent membrane potential dye (BD biosciences) was utilized to detect cAMP stimulation in cells.
# The cells were maintained in DMEM medium (Invitrogen) containing 10 % FBS (Hyclone), 100 units/ml Penicillin, 100 ug/ml Streptomycin (Invitrogen), and 250 ug/ml Geneticin (Invitrogen) and 1 ug/ml Puromycin (Invitrogen) at 37C in 5% CO2. This assay was used as a counterscreen to "qHTS Assay for Agonists of the Thyroid Stimulating Hormone Receptor", to control for compounds signaling through endogenous receptors and other targets of HEK 293 cells.
# NCGC Assay Protocol Summary:
# High Throughput Screening. Freshly passaged cells were dispensed into 1536-well assay plates at 4 ul/well in DMEM containing phenol red (Invitrogen), 10% FCS (Hyclone), and 100 units/ml Penicillin, 100 ug/ml Streptomycin (Invitrogen) and incubated at 37 C with 5% CO2 for 20 to 36 hrs before the robotic screening. The screen was initiated by addition of 4 ul/well membrane potential dye containing 100 uM RO 20-1724 (Sigma Aldrich), followed by 60 min incubation at room temperature to allow for dye equilibration across the cell membrane. 23 nl/well compound or control was then added to the assay plates, which were incubated for additional 30 min before reading a Envision fluorescence plate reader (Perkin Elmer) in bottom-read mode for fluorescence intensity (emission at 590 nm).
# Keywords: cAMP, CNG Ion Channel, quantitative high throughput screening, qHTS, HTS, probe identification, CNG, cAMP, cyclic nucleotide gated ion channel PubChem
# Potency means the concentration at half of the fitted maximal effect; tags describe the fitted curve by direction and shape.
SMILES,Potency,activation
CN1C(=O)CSc2ccc(NC(=O)Nc3ccccn3)cc21,inactive,–
CCCNC(=O)CS(=O)(=O)Cc1nc(-c2ccccc2C)oc1C,"inconclusive [activator, single point]",–
Cc1cc(C(=O)CSc2nnnn2-c2ccccc2)c(C)n1CC1CCCO1 (stereo not given),active: 25.1 µM,–
COCCN1Cc2cccc(C(=O)Nc3ccc(S(=O)(=O)N4CCCCC4)cc3)c2C1=O,inactive,–
O=C(c1coc2ccc(O)cc12)C1CC1,"inconclusive [activator, single point]",–
CC1(C)CCC[C@@]2(C)[C@@H]1CC[C@]1(C)OC(=O)C[C@@H]21,"inconclusive [activator, single point]",–
Cn1c(=O)c2c(nc(Oc3ccc4c(c3)OCO4)n2Cc2ccc(Cl)cc2)n(C)c1=O,"inconclusive [activator, full curve]",–
CCS(=O)(=O)Nc1ccc(C(=O)CC2(O)C(=O)Nc3ccc(Br)cc32)cc1 (stereo not given),inactive,–
Cc1ccc(NC(=O)N(Cc2ccc3c(c2)OCO3)Cc2cc3cc4c(cc3[nH]c2=O)OCCO4)cc1,inactive,–
Cn1c(=O)[nH]c(=O)c2c1nc(CN1CCN(c3cccc(Cl)c3)CC1)n2CCc1ccccc1,"inconclusive [activator, single point]",–
CCN(CC)C(=O)Oc1ccc2c(=O)c(-c3ccccc3)coc2c1,"inconclusive [activator, single point]",–
O=C1OC(=O)[C@@H]2[C@@H]1[C@@H]1CC[C@H]2O1,inactive,–
COc1ccc(C(=O)Nc2ccc(Cl)c(Cl)c2)c(OC)n1,"inconclusive [activator, partial curve]",–
C=CCNc1nc(N(c2ccccc2)c2ccccc2)nc(-n2ccnc2)n1,"inconclusive [activator, partial curve]",–
Cc1cccc(C)c1NC(=O)C1(N(Cc2ccco2)C(=O)CC2NC(=O)NC2=O)CCCCC1 (stereo not given),"inconclusive [activator, full curve]",–
Cc1ccc(-n2c(SCC(=O)Nc3cc(C)on3)nc3c(c2=O)SC(C)C3)cc1 (stereo not given),inactive,–
COc1ccccc1-c1cn(S(=O)(=O)c2ccc(C)cc2)nc1N,"inconclusive [activator, single point]",–
CCc1ccc2oc(=O)cc(CN3CCCCC3C)c2c1 (stereo not given),active: 25.1 µM,–
CC(=O)c1cc(-c2ccccc2)n(CC(=O)N2CCC(N3CCCCC3)CC2)c1C,"inconclusive [activator, single point]",–
C/C=C/OC(=O)NC(c1ccccc1)[C@]1(C(C)=O)CCOC1=O (stereo not given in full),"inconclusive [activator, partial curve]",–
Cc1ccccc1-c1ccc2ncnc(N(C)Cc3ccco3)c2c1,"inconclusive [activator, partial curve]",–
Cc1cc(C)n(C(=O)C23CC4CC(CC(C4)C2)C3)n1,"inconclusive [activator, single point]",–
COc1ccc(CNc2nc(-c3c(C)noc3C)nc3ccccc23)c(OC)c1,"inconclusive [activator, partial curve]",–
Cc1noc(C)c1S(=O)(=O)N1CCC(Cc2ccccc2)CC1,"inconclusive [activator, single point]",–

SMILES,Potency,activation
Cc1cccn2c(=O)c(C=Nc3ccc(Cl)cc3)c(NCCO)nc12,"inconclusive [activator, single point]",–
Cc1nc(NCc2ccccc2)c2nc(-c3ccccc3)n(CC(C)(C)CN(C)C)c2n1,"inconclusive [activator, single point]",–
Cc1ccccc1OCCCC(=O)Nc1ccc(N2CCOCC2)cc1,–,inactive: 22.3% [at 11.4 µM]
Cc1cccc(-c2noc(-c3ccccc3C(=O)NCC3CCCO3)n2)c1 (stereo not given),"inconclusive [activator, partial curve]",–
Cc1ccc(OCCn2c(=O)cnc3ccccc32)cc1,"inconclusive [activator, single point]",–
O=C(CCCOc1ccccc1)N1CCCc2ccccc21,"inconclusive [activator, single point]",–
CN(C)c1cc(NC(=O)CN2CCOCC2)c2ccccc2n1,active: 20 µM,–
COc1ccc(C2C3=C(N=C4SCC(=O)N42)c2ccccc2CC3)cc1 (stereo not given),"inconclusive [activator, single point]",–
O=C(Nc1ccc2c(c1)OCO2)C1COc2ccccc2O1 (stereo not given),inactive,–
COC(=O)[C@](C)(N)Cc1ccc(O)cc1,"inconclusive [activator, single point]",–
CCOc1ccccc1C1C(C#N)=C(N)SC(N)=C1C#N,inactive,–
Cn1c(=O)[nH]c(=O)c2c1nc(CN1CCN(c3ccc(F)cc3)CC1)n2CCc1ccccc1,"inconclusive [activator, single point]",–
O=S(=O)(c1ccc(Br)s1)N1CCc2ccccc2C1,"inconclusive [activator, single point]",–
CC(C)N(Cc1nc(-c2ccccc2)no1)C(=O)c1ccc(Br)o1,"inconclusive [activator, single point]",–
O=c1c2c3nc4ccccc4nc3n(CCN3CCOCC3)c2ncn1CCN1CCOCC1,inactive,–
COc1cc2cc(C(c3nnnn3C3CCCC3)N3CCc4ccccc43)c(=O)[nH]c2cc1OC (stereo not given),inactive,–
CCN(C(=O)c1cc(Cl)ccc1OC)c1ccccc1,"inconclusive [activator, single point]",–
CC(=O)OCC1OC(C#CCCc2ccccc2)C=CC1OC(C)=O (stereo not given),–,inactive: 0.38% [at 11.4 µM]
O=C(NCc1ccc2c(c1)OCO2)C1CCN(c2ccc(S(=O)(=O)N3CCCC3)cc2)CC1,"inconclusive [activator, single point]",–
CCc1ccc2oc(=O)cc(CN(C)Cc3ccccc3)c2c1,"inconclusive [activator, single point]",–
CC1(C)O[C@@H]2C[C@H]3[C@H]4C[C@H](F)C5=CC(=O)C=C[C@@]5(C)[C@@H]4[C@H](O)C[C@]3(C)[C@]2(C(=O)CO)O1,inactive,–
Cc1ccc2[nH]c(C(=O)O)c(-c3ccccc3)c2c1,inactive,–
C/C(N)=C(/C#N)C(=O)CSc1nc2ccc(C)cc2[nH]1,"inconclusive [activator, single point]",–
CC(CNCc1ccc2c(c1)OCO2)NCc1ccc2c(c1)OCO2 (stereo not given),"inconclusive [activator, single point]",–

SMILES,Potency,activation
CSCC[C@H](NC(=O)OC(C)(C)C)C(=O)N1CCC(C(=O)N[C@@H](C)C(=O)O)CC1,–,inconclusive: 43.7% [activator]
FC(F)Sc1nnc(-c2cccs2)n1-c1ccccc1,"inconclusive [activator, single point]",–
O=C(c1cc(C(F)(F)F)cc(C(F)(F)F)c1)N1CCC2(CC1)CCN(c1ncccn1)CC2,inactive,–
Cc1cccc(CNc2cc(-c3ccccc3C)ncn2)c1,"inconclusive [activator, full curve]",–
CNC(=O)[C@@H]1O[C@@H](n2cnc3c(NCc4ccc(N)cc4)ncnc32)[C@@H](O)[C@H]1O,"inconclusive [activator, full curve]",–
Cc1nc2cnc(OCc3ccccc3)nc2n(CCC#N)c1=O,"inconclusive [activator, partial curve]",–
O=C(c1ccco1)N1CCN(c2ncnc3c2[nH]c2ccc(Br)cc23)CC1,inactive,–
OC[C@H]1NC[C@@H](O)[C@@H](O)[C@H]1O,inactive,–
COCCOC(=O)/C=C1/NC(=O)CS1,inactive,–
Nc1nc(SCc2ccccc2[N+](=O)[O-])c2[nH]cnc2n1,–,inactive: -1.36% [at 11.4 µM]
CC(=O)c1cc(-c2ccccc2)n(CCC(=O)NCc2cccs2)c1C,inactive,–
O=C(NCc1ccco1)C(c1ccco1)N(CCc1ccccc1)C(=O)Cn1nnc2ccccc21 (stereo not given),active: 15.8 µM,–
O=C(Oc1ccccc1)N1CCC2(CC1)CCN(c1ccccc1)CC2,"inconclusive [activator, partial curve]",–
CCCC[C@@H]1C[C@H]1C(NC(=O)c1ccccc1)c1ccc(C(=O)OC)cc1 (stereo not given in full),active: 15.8 µM,–
CN=CC1=C(O)c2ccccc2C1=O,"inconclusive [activator, single point]",–
O=S(=O)(c1cccc(C(F)(F)F)c1)N1c2ccccc2-n2cccc2[C@H]1c1cccnc1,"inconclusive [activator, single point]",–
COc1ccc(C(c2sc3nc(C)nn3c2O)N2CCc3ccccc3C2)cc1 (stereo not given),"inconclusive [activator, single point]",–
COc1ccc(C)c(S(=O)(=O)Nc2ccc(OCC(=O)O)cc2)c1,"inconclusive [activator, single point]",–
COc1ccccc1CN(C(=O)c1ccco1)C(C(=O)NC1CCCC1)c1ccncc1 (stereo not given),"inconclusive [activator, full curve]",–
O=C1CC(c2ccccc2)CN1Cc1ccccc1 (stereo not given),inactive,–
Cn1c(=O)n(C)c2cc(CN3C(=O)OC(C)(C)C3(C)O)ccc21 (stereo not given),"inconclusive [activator, single point]",–
Cc1cc(NC(=O)c2cc(S(=O)(=O)N3CCCCC3)ccc2C)n(-c2ccccn2)n1,"inconclusive [activator, single point]",–
